# Results as given in the supplement of paper PMC3334620.
# Over roughly 33,000 sequences, “E-score (-0.5 to 0.5)” has its median near -0.016; the highest 2% begin near 0.31. The list shows a part of the results.
# Target: Cst6 (UniProt P40535)
# Experiment: PBM E-score (8-mer binding enrichment) (E-score (-0.5 to 0.5)); higher = stronger / more preferred TF binding; most listed sequences are background and not binding sites
# Conditions: protein concentration: 200 nM; construct: GST-DNA-binding domain
# Summary of the method: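 For each ungapped eight-base word taken together with its reverse complement, the Universal PBM Analysis Suite assigned an E-score. Binding data came from GST-tagged yeast transcription factors, applied at about 100-200 nM, on universal all-10-mer Agilent arrays made double-stranded by primer extension. Fluorescent anti-GST marked bound protein, and scans were normalised with masliner.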
row,Sequence,PBM E-score
1,ATGTTTTC,0.223
2,ATCAAATA,0.0992
3,GATGTGCA,0.00759
4,ACAGCATA,0.138
5,AGTTTACC,-0.0624
6,ACCGGCAA,-0.186
7,GACGACAC,0.181
8,AACAGCCG,0.0115
9,CAGATGAA,0.0452
10,AATGTCAG,-0.00168
11,CAAAGATC,0.049
12,ACTCTCTA,-0.144
13,GCCGACGC,-0.0913
14,CCTAGGCC,-0.216
15,AGATTCAG,-0.163
16,CAAAGGGG,-0.0611
17,AGCCAGCG,-0.245
18,CGGAGTGA,0.137
19,ACTCTCCT,-0.202
20,ATACAAGG,0.141
21,ATGCATCA,0.372
22,AAACGCCC,-0.0366
23,CACAACTC,0.123
24,CAAACAAG,0.00823

row,Sequence,PBM E-score
1,GCATCTCA,0.124
2,GCAGCGCA,-0.161
3,CTTTATCA,0.00948
4,ACTCTATG,0.012
5,ACGGTCAG,-0.051
6,AGGAAACG,-0.0151
7,CCCGTAAC,-0.163
8,TGAGGCAA,0.164
9,ACATTGAG,-0.0338
10,GACTTAGA,-0.0611
11,TTACATAA,0.433
12,CACCCTTC,-0.285
13,TCCGCGGA,-0.0627
14,CAACAAAA,0.168
15,CTCCGGAG,-0.088
16,ATGCTATC,-0.057
17,CTAAGTGA,0.184
18,CAGTTACG,0.17
19,TCCAGAAA,0.216
20,CACTTGCA,0.015
21,CAAGGCGA,-0.128
22,GGTGAGAA,0.0817
23,ACTCGATC,-0.0157
24,ACTGTGAA,-0.0151

row,Sequence,PBM E-score
1,ATACCCGA,-0.132
2,AGAGTAGG,0.0169
3,ACTCTTGC,-0.0303
4,CGCTTCAC,-0.0447
5,GGGGAACA,-0.346
6,CGACCCAA,0.0872
7,GAATTGTC,0.0596
8,ATCTGAGG,0.0216
9,CTCCCGCC,-0.0921
10,AGCAGAGG,-0.307
11,ACGTTCTC,0.0236
12,CCTCGCAA,-0.0503
13,GCGCGCCA,0.179
14,ACATCTAA,0.0827
15,AACCCTCG,-0.0978
16,GTGGTTTA,-0.0399
17,CAGAGCGA,-0.018
18,TTATTCAA,0.212
19,AGGGGCGA,-0.3
20,AGCAGTAA,0.103
21,AGTCAAAT,0.0827
22,ATGATAGG,0.00019
23,AGGGTCCA,-0.317
24,GCATACGC,-0.123

row,Sequence,PBM E-score
1,AGAATGCC,0.0564
2,TAGAAATA,0.141
3,AGTGAACA,-0.0145
4,TGGTCGAA,-0.142
5,GATTTGTA,0.161
6,CGCTTTAG,-0.0171
7,GTTGTTGA,0.239
8,GATCTATA,0.0388
9,ACCTGTCC,-0.238
10,CTGGCCAC,-0.122
11,CAAACCCG,-0.0771
12,AGTTAGCC,-0.129
13,GGAACTGA,-0.223
14,ACGGATAG,0.0654
15,ACGGCCGA,0.0667
16,CAGCGTCG,-0.0474
17,ATGTAAGG,0.152
18,CCAGAGCC,-0.0517
19,CGCTTCTC,-0.0501
20,GACTAATA,0.131
21,CCTATTAG,0.127
22,CCCCATAA,-0.161
